# Assay results reported in the supplement of paper PMC3334620.
# The full ranking holds about 33,000 sequences; the median of “E-score (-0.5 to 0.5)” is about -0.054, and the highest 2% start at about 0.39. The list shows a part of the results.
# Biological target: Ylr278c (UniProt Q05854)
# Assay: PBM E-score (8-mer binding enrichment) (E-score (-0.5 to 0.5)); higher = stronger / more preferred TF binding; most listed sequences are background and not binding sites
# Conditions: protein concentration: 200 nM; construct: GST-DNA-binding domain
# Procedure, shortened: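 The E-score, a modified Wilcoxon-Mann-Whitney statistic, was computed by the Universal PBM Analysis Suite for every ungapped eight-base word pooled with its reverse complement. Scans behind it were normalised with masliner after bound GST-tagged yeast transcription factors were detected with fluorescent anti-GST. The proteins, at about 100-200 nM, had been applied to universal all-10-mer Agilent arrays made double-stranded by primer extension.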
row,Sequence,PBM E-score
1,CATCGATG,-0.116
2,CACACGGA,0.343
3,GGGCTACC,-0.204
4,CTGCGACA,0.094
5,CTCAAGAG,-0.332
6,AGCTCTAA,-0.113
7,AGCATGCA,-0.287
8,CACTAATA,-0.0115
9,AGACACCT,-0.185
10,ATATTGTA,-0.0999
11,CCTTACCG,0.121
12,ATGTAGAC,-0.206
13,ATAGTTAG,0.0157
14,TAGGATGA,-0.143
15,GTATTGTA,0.0802
16,CACGTGCG,0.0856
17,CACCTCCA,0.0316
18,TAACAACA,-0.124
19,CTTGTTGC,-0.122
20,ATTAGCCG,0.2
21,ACCATAGC,-0.169
22,ACACGTTA,-0.323
23,AAAAATTC,0.0416
24,AAAAGCAC,-0.146
25,ATAATCAG,-0.0432

row,Sequence,PBM E-score
1,CATGGGTA,-0.0498
2,CGTATGAC,-0.0488
3,GTCTGGTA,-0.199
4,GATGAAGC,0.0542
5,GGCTCGAA,-0.0974
6,TCTACCCA,-0.14
7,GAGGACCC,0.0491
8,CACGTAAG,-0.21
9,CCGCTGTC,0.218
10,AAGCCTGC,-0.0717
11,ATTGACAA,-0.0408
12,TATACCGA,0.221
13,CCAGCAAA,-0.0997
14,AAATTTGC,-0.0386
15,AAATACTA,-0.165
16,ACCTAGCG,-0.129
17,ATAGCTGG,-0.0378
18,AGGGGCGG,0.273
19,CAATAGGG,-0.0831
20,CGAGTCCC,0.228
21,AAACCCAC,-0.0015
22,ACATTGTC,0.2
23,ACGAGCGT,-0.234
24,CGTCTGGA,-0.166
25,AGCCATGC,-0.0365

row,Sequence,PBM E-score
1,AGATGGGG,-0.218
2,AACTTAGA,-0.137
3,GGATCCTA,-0.0491
4,AGCTTTAT,-0.146
5,AAATAGCA,-0.0369
6,GACATTGA,0.0872
7,CCATCCAG,-0.239
8,CTCGCGGA,0.37
9,ATTTCCAA,0.0312
10,AGCTCACA,-0.249
11,CACTAGAC,-0.0784
12,ACTGCTAA,-0.185
13,ATAGTGCA,-0.0512
14,CCAACCGA,-0.17
15,AGGCCCCA,-0.11
16,GATGCAGA,-0.155
17,CTAACGAG,0.00302
18,CCTGAACG,0.0468
19,ACACACAA,-0.127
20,CGAGCGCC,0.182
21,AGCTGAGG,-0.201
22,CGAGGACC,-0.0858
23,CCGGTTCG,0.305
24,ACCCCTAA,-0.127
25,ACAAAGGT,-0.181

row,Sequence,PBM E-score
1,ACAAACGT,-0.21
2,CACTGCAA,-0.202
3,CCATAAGG,-0.401
4,AATCGGCG,0.323
5,TAAGGTCA,-0.21
6,ACGTCGCT,-0.0224
7,GGTTCCAC,-0.0232
8,CGCCCGGA,0.435
9,ACGGCCCA,0.0106
10,AGTTTCCG,0.384
11,CAGTCTAG,-0.227
12,ATTGGGCA,-0.18
13,CTAGGTCA,-0.237
14,ATCGCTGG,-0.0433
15,ACGTAGAA,-0.0803
16,TGAATCAA,-0.0372
17,ATCATCTC,0.089
18,GTTCAACA,-0.0482
19,AAACACCA,-0.136
20,AAAGTCTA,-0.118
21,ATTCCACA,0.115
22,GAGAACAA,0.127
23,ACTGACGC,-0.315
24,CCCATCAA,-0.136
25,TGCTGCCA,-0.168

row,Sequence,PBM E-score
1,CACCTTCC,-0.0509
2,GTATAGGA,-0.317
3,GCCCCAGC,-0.0856
4,AAGTTCCC,0.131
5,AGGACTTG,-0.209
6,GCGAAGGA,-0.16
7,AAATTAAG,-0.013
8,CTATAACC,-0.164
9,CCATGCGG,0.113
10,AGTTATTA,-0.0333
11,CTTCCTGC,-0.209
12,CAGTGCTA,-0.173
13,GTCATGCA,-0.0941
14,CCCCCACG,-0.214
15,ACATCGGA,0.377
16,AGCCTGTG,-0.305
17,ATCTCTAC,-0.218
18,CACTGCCG,0.215
19,GACTTTAA,-0.0643
20,ACCTTGTG,-0.131
21,ATAACAAA,0.119
22,AGACAGGG,-0.276
23,ACAACTTA,-0.219
24,GTCCGTTA,0.332
25,AAAATACA,-0.117

row,Sequence,PBM E-score
1,CGAATAGC,-0.211
2,GAAGGGCA,-0.045
3,CAGTCACC,-0.133
4,ACGGGTCT,-0.101
5,AGGATTTC,0.0497
6,AAGTAGCA,-0.224
7,CCTGTCAG,-0.18
8,ACTGCGCC,-0.0518
9,ATGGAACC,0.0323
10,CGCGTTAC,0.0774
11,GACCTAGA,-0.0337
12,CATAACGG,-0.0297
13,GTTAAAAC,-0.0331
14,TTCTAAAA,-0.0651
15,ATAATGCC,0.192
16,TACTCTGA,-0.128
17,CATTTCCC,0.161
18,CGTCCTAA,-0.21
19,GCGTGCAC,0.0261
20,ATGTCTAC,-0.1
21,AAAAAACT,-0.111
22,GATACATC,-0.201
23,ATGTTGGA,0.0684
24,GCTTTCCA,-0.0584
25,GGTTTTCA,0.129

row,Sequence,PBM E-score
1,AAGATGCC,-0.0338
2,CTCCAAAG,-0.174
3,AGGGGAAC,-0.183
4,ACTTTAGC,-0.0362
5,CCTACTCG,0.0578
6,CATAAACC,-0.0532
7,AGGTATGG,-0.0251
8,AGGCCGAG,0.232
9,TGGCTGAA,-0.111
10,ATGTCGGG,0.222
11,CAGATCGA,-0.113
12,AACACTAA,-0.126
13,AACAACTG,-0.075
14,GGAAATGA,0.158
15,GATAAGGA,-0.0687
16,AATCACGT,-0.0575
17,CGCTAGCA,-0.0779
18,GCACGAAC,-0.129
19,CCATCTAA,-0.194
20,GGAATCAC,0.197
21,AGAGCACG,-0.0334
22,AGAAGGGA,-0.283
